Results published in PubChem BioAssay AID1963576 (National Center for Advancing Translational Sciences (NCATS), 2024).
Among all 46,000 compounds or so, about 60 (0.1%) were called active. Not shown: some 3% with an inconclusive outcome. Calls follow the shape of the dose curve; as a rule, active = well fitted inhibition curve with a large enough effect; inconclusive = small, poorly fitted or top-dose-only effect; inactive = no such curve, though single readings can be large or run the other way. The list shows a part of the results.

Experiment: Primary qHTS assay for Inhibitors of ovarian cancer metastasis using an organotypic tumor microenvironment (TME) model. Also: nearly all actives have a fitted effect of over 65% in size.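 As to activity change, negative = inhibition: plate controls were DMSO wells for no effect and tomatine positive control wells for full effect.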
Settings: SKOV3ip1-GFP adhesion/invasion on 3D omental model, fluorescence; series mostly up to 45.8 µM; activity change, negative = inhibition: at the top concentration
Method in brief: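 Primary human omental fibroblast/mesothelial 3D culture pre-formed 48 h. SKOV3ip1-GFP cells added with compounds (0.36-46 umol/L), incubated 2 h RT/16 h 37 C, fixed; GFP cells quantified at 488/509 nm.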

Row | Structure (SMILES) | activity change, negative = inhibition | outcome
1 | CCOc1ccccc1C(=O)Nc1cc2c(cc1C)n(C)c(=O)c(=O)n2C | inactive: 4.7% | –
2 | COc1ccc(-c2nc3sc(CCNC(=O)c4ccc(C(C)(C)C)cc4)c(C)n3n2)cc1 | – | inactive
3 | CCOc1ccc(C(=O)Nc2ccc(Cl)c(-c3nc4cc(C)cc(C)c4o3)c2)cc1 | inactive: -0.359% | –
4 | CCc1ccc2occ(CC(=O)NCc3ccccc3)c2c1 | inactive: -37.3% | –
5 | Cc1oc(-c2ccc(Cl)cc2)nc1CN1CCCC(C(=O)NCc2ccc(Cl)cc2)C1 (stereo unspecified) | inactive: 15.2% | –
6 | CN(Cc1ccccc1)C(=O)c1ccc2c(c1)N(Cc1ccc(Cl)cc1)C(=O)c1ccccc1S2=O (stereo unspecified) | inactive: -5.3% | –
7 | CCOC(=O)c1cnc2c(C)cc(C)cc2c1Nc1ccc(N2CCOCC2)cc1 | inactive: 7.11% | –
8 | COc1ccc(C(=O)Nc2ccc3c(c2)N(C)C(=O)c2ccccc2S3)cc1OC | – | inactive
9 | Cc1ccc(-n2nc(C)c(C(=O)NCCCN3CCN(c4ccccc4F)CC3)c2-n2cccc2)cc1 | inactive: -26.4% | –
10 | CCOC(=O)N1CCN(C(=O)c2cnn(-c3cccc(C)c3)c2-n2cccc2)CC1 | – | inactive
11 | Cn1c(=O)c2c(c3ccccc31)OC(=O)CC2c1ccccc1 (stereo unspecified) | inactive: 0.367% | –
12 | O=c1c2ccccc2n2c(-c3cccc(F)c3)nnc2n1Cc1ccccc1 | inactive: 3.45% | –
13 | COc1ccc(NC(=O)c2ccc3c(=O)n4nc(Nc5ccccc5C)sc4nc3c2)cc1 | inactive: 2.72% | –
14 | CC(C)c1ccc(NC(=O)CSC2=Nc3ccccc3C3=NC(CC(=O)NCc4ccco4)C(=O)N23)cc1 (stereo unspecified) | inactive: 4.38% | –
15 | COc1cccc(NS(=O)(=O)c2ccc3[nH]cc(C(=O)N(C)Cc4ccco4)c(=O)c3c2)c1 | inactive: -5.14% | –
16 | Cc1ccc(CC(=O)NCc2nc(-c3cccc(C)c3)no2)cc1 | inactive: 21% | –
17 | Cc1ccc(N(C)C(=O)c2noc3c2CCCCC3)cc1C | inactive: -17.9% | –
18 | COc1ccc(OC)c(NC(=O)c2cc3c(=O)n4cccc(C)c4nc3n2C)c1 | inactive: -0.498% | –
19 | CN(C)c1ccc(-c2nc3ccccn3c2Nc2ccc3c(c2)OCCO3)cc1 | inactive: -18.5% | –
20 | Cc1cccc(N2CCN(C(=O)c3c4c(nc5ccccc35)C(=O)N(C3CCCCC3)C4)CC2)c1C | inactive: 1.06% | –
21 | COc1cc(OC)c(NC(=O)C(C)n2nc(-c3ccc(C)c(C)c3)ccc2=O)cc1Cl (stereo unspecified) | inactive: 3.63% | –

Row | Structure (SMILES) | activity change, negative = inhibition | outcome
22 | COc1cccc(NC(=O)CSc2nnc(NC(=O)NC3CCCCC3)s2)c1 | inactive: 5.51% | –
23 | Cc1cccc(C)c1OCc1cc(=O)n2ccsc2n1 | inactive: -3.38% | –
24 | COCCN1C(=O)c2oc3ccc(C)cc3c(=O)c2C1c1ccc(C(=O)OC)cc1 (stereo unspecified) | inactive: -7.68% | –
25 | CSc1ncc(C(=O)NCc2cccc(Br)c2)c(-c2ccccc2)n1 | inactive: -19.5% | –
26 | COc1cccc(C(=O)c2cn(CC(=O)Nc3cccc(Cl)c3C)c3nc(C)ccc3c2=O)c1 | inactive: 5.57% | –
27 | O=C(Cn1c(=O)c2sccc2n(CC(=O)Nc2ccc(Cl)cc2Cl)c1=O)NCCc1ccccc1 | inactive: -7.27% | –
28 | CCCN1Cc2cccc(C(=O)Nc3ccc(OC)cc3OC)c2C1=O | inactive: -0.205% | –
29 | Cc1ccc(NC(=O)N2CCc3c([nH]c4ccccc34)C2c2ccccc2F)c(Cl)c1 (stereo unspecified) | inactive: 6.01% | –
30 | COc1ccc(C(C(=O)NCc2ccccc2)N(C(=O)Cn2nnc3ccccc32)c2ccc(OC)cc2)cc1 (stereo unspecified) | inactive: 9.93% | –
31 | Cc1ccc(C(C)C)c(OCC(=O)Nc2ccc(-c3nc4ncccc4o3)cc2C)c1 | – | inactive
32 | Cc1ccc(C)c(NS(=O)(=O)c2ccc3c(c2)CCCN3C(=O)C2CCC2)c1 | inactive: -16.1% | –
33 | O=C(NCc1ccccc1F)C(=O)NCC(c1ccco1)S(=O)(=O)c1ccccc1 (stereo unspecified) | inactive: -3.05% | –
34 | COc1ccc(CNS(=O)(=O)c2ccc3c(c2)C(C)(C)C(=O)N3C)cc1OC | – | inactive
35 | COC(=O)c1c(NC(=O)CCCOc2ccccc2C)sc2c1CCC2 | inactive: -20.3% | –
36 | Cc1cccc(N2CCN(C(=O)c3cccc(-n4c(C)nc5cccnc54)c3)CC2C)c1 (stereo unspecified) | inactive: -3.73% | –
37 | Cc1c(C(=O)Nc2ccccc2Cl)oc2ccc(S(=O)(=O)N3CCCCCC3)cc12 | inactive: 6.18% | –
38 | CCOC(=O)C1=C(CS(=O)(=O)c2ccc(F)c(C)c2)NC(=O)NC1c1ccc(F)c(F)c1 (stereo unspecified) | – | inactive
39 | CC(=O)N1CCc2c(sc(NC(=O)CSc3ccc(C)cc3)c2-c2nc3ccccc3s2)C1 | inactive: 46.6% | –
40 | Cc1ccc(CCNC(=O)c2ccc(CNS(=O)(=O)c3ccc(F)cc3)cc2)cc1 | – | inactive
41 | COC(=O)c1cc2sc(Cl)cc2n1Cc1nc(-c2ccccc2F)oc1C | inactive: 7.31% | –
42 | O=C1CC(=O)Nc2cc(S(=O)(=O)Nc3cccc(Br)c3)ccc2N1 | inactive: -8.46% | –

Row | Structure (SMILES) | activity change, negative = inhibition | outcome
43 | COc1ccc(OC)c(CCNc2ncnc3onc(C)c23)c1 | inactive: -1.38% | –
44 | CCn1c(CN2CCC(C)CC2)nc2cc(NC(=O)c3cccc([N+](=O)[O-])c3)ccc21 | inactive: -18.1% | –
45 | O=C(NC1(C(F)(F)F)N=C(c2ccccc2)N(C2CCCCC2)C1=O)c1ccccc1F (stereo unspecified) | inactive: -0.614% | –
46 | COc1ccc(NS(=O)(=O)c2cc3c4c(c2)CC(=O)N4CCC3)cc1Cl | inactive: 11.1% | –
47 | Cc1cc(C)c2c(n1)SCC(=O)N2CC(=O)Nc1c(C)cccc1C | – | inactive
48 | Cc1cc(C)cc(NC(=O)Nc2c[nH]c(=O)[nH]c2=O)c1 | – | inactive
49 | COc1ccccc1NC(=O)Cn1c(SCC(=O)NCc2ccccc2)nc2ccccc21 | inactive: 3.16% | –
50 | CC(=O)Nc1ccc(-c2nnc3n(CC(C)C)c(=O)c4ccccc4n23)cc1 | inactive: 9.42% | –
51 | Cc1cc(C)cc(NC(=O)NCC2CCN(Cc3cc(C)ccc3C)CC2)c1 | inactive: -7.04% | –
52 | Cc1ccc(-c2cc(-c3coc4ccccc4c3=O)c3c(n2)-c2cc(Cl)ccc2OC3)cc1 | inactive: 5.97% | –
53 | COc1ccc(-c2noc(CSc3nnc(-c4ccncc4)n3-c3cccc(C)c3)n2)cc1OC | inactive: 4.92% | –
54 | COc1cc(-c2nnc(SCC(=O)N(C)C3CCCCC3)o2)cc(OC)c1OC | – | inactive
55 | COc1ccc(NC(=O)CCCN2C(=O)C(c3ccccc3)Oc3cccnc32)cc1OC (stereo unspecified) | inactive: -12.4% | –
56 | COc1ccc(NC(=O)c2oc3ccc4c(c3c2C)C(=O)CC(C)(C)O4)cc1OC | inactive: 5.67% | –
57 | COc1cc2c(cc1NC(=O)C(C)Oc1ccc(Cl)cc1Cl)oc1ccccc12 (stereo unspecified) | inactive: 10.4% | –
58 | CCc1ccc(OCC2c3cc(OC)c(OC)cc3CCN2C(=O)Cc2ccc(OC)c(OC)c2)cc1 (stereo unspecified) | – | inactive
59 | CCNC(=O)Nc1ccc2ncc(Nc3ccc(C)cc3)nc2n1 | inactive: -4.01% | –
60 | COc1ccc(CCC(=O)NCCc2csc(-c3cccc(F)c3)n2)cc1 | inactive: 1.97% | –
61 | CSCCC(NC(=O)C1CCCCC1)C(=O)Nc1ccc(F)c(Cl)c1 (stereo unspecified) | inactive: -2.44% | –
